# Measured values reported in PubChem BioAssay (NCATS).
# “And” between values parts separate entries of the source, which are not always exact repeats. Equal values may be shown once. This list was built around the results that the source calls inconclusive (neither active nor inactive); the mix of calls is not that of the screen. A potency beside an inconclusive call is a rough fit, not a confirmed value. The source made the active and inactive calls. Calls come from the whole dose curve; as a rule, active = well fitted curve in the direction sought with a large enough effect; inconclusive = small, poorly fitted or top-dose-only effect, or another doubt; inactive = no such curve, though single readings can be large; an effect the other way counts as inactive or inconclusive.
# Key:
# [1] = qHTS of pediatric cancer cell lines to identify multiple opportunities for drug repurposing: Primary screen for OHS-50 cells (AID 1347103); conditions: OHS-50 osteosarcoma viability, CellTiter-Glo luminescence, 48 h; activity change, negative = cytotoxic: at 57.3 µM (top of the series); note: nearly all actives have a fitted effect of over 40% in size;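 for activity change, negative = cytotoxic: plate controls were DMSO neutral control for no effect and bortezomib positive control for full effect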
# In short: (§1)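 Cells (500-1,000/well) rested 5 h, then received compounds for 48 h; metabolically active cells were measured by CellTiter-Glo luminescence. Final concentrations spanned up to 46 µM (MIPE, 11-point) or 0.59 nM-46 µM (NPC, 8-point) in primary screens, 11-point in follow-ups.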
# [2] = qHTS of pediatric cancer cell lines to identify multiple opportunities for drug repurposing: Primary screen for RD cells (AID 1347104); conditions: RD rhabdomyosarcoma viability, CellTiter-Glo luminescence, 48 h; series mostly up to 46 µM; note: nearly all actives have a fitted effect of over 55% in size;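 for activity change, negative = cytotoxic: plate controls were DMSO for no effect and bortezomib for full effect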
# In short: (§2)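 CRCs from 8- or 11-point titrations (lowest final 0.59 nM NPC, 0.78 nM MIPE). Cell viability: CellTiter-Glo after 48 h incubation, 15 min room-temperature development, luminescence imaging.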
# [3] = qHTS of pediatric cancer cell lines to identify multiple opportunities for drug repurposing: Primary screen for Rh30 cells (AID 1347107); conditions: Rh30 rhabdomyosarcoma viability, CellTiter-Glo luminescence, 48 h; series mostly up to 46 µM; note: nearly all actives have a fitted effect of over 75% in size; for activity change, negative = cytotoxic: % is set by controls: 0 for no effect and ±100 for the full control effect
# In short: as §1
# [4] = qHTS of pediatric cancer cell lines to identify multiple opportunities for drug repurposing: Primary screen for Rh41 cells (AID 1347108); conditions: Rh41 rhabdomyosarcoma viability, CellTiter-Glo luminescence, 48 h; series mostly up to 46 µM; note: nearly all actives have a fitted effect of over 70% in size;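 for activity change, negative = cytotoxic: luminescence drop marks cytotoxic hits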
# In short: as §2
# [5] = qHTS of pediatric cancer cell lines to identify multiple opportunities for drug repurposing: Confirmatory screen for NB1643 cells (AID 1347109); conditions: NB1643 neuroblastoma cell viability; activity change, negative = cytotoxic: at 45.9 µM (top of the series) unless noted; note: nearly all actives have a fitted effect of over 45% in size;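 for activity change, negative = cytotoxic: plate controls were DMSO for no effect and bortezomib for full effect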
# In short: as §1
# [6] = qHTS of pediatric cancer cell lines to identify multiple opportunities for drug repurposing: Confirmatory screen for SK-N-MC cells (AID 1347111); conditions: SK-N-MC cell viability; series mostly up to 45.9 µM;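 note: cells exposed to compound for 48 h before the readout; nearly all actives have a fitted effect of over 70% in size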;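 for activity change, negative = cytotoxic: plate controls were DMSO for no effect and bortezomib for full effect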
# In short: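 Seed 500-1,000 cells/well; rest 5 h at 37 degrees C. Pin-transfer compounds, 11-point titration. Incubate 48 h. Add CellTiter-Glo, 15 min RT, read luminescence.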
# [7] = qHTS of pediatric cancer cell lines to identify multiple opportunities for drug repurposing: Confirmatory screen for BT-12 cells (AID 1347112); conditions: BT-12 rhabdoid tumor cells, viability; series mostly up to 45.9 µM; note: nearly all actives have a fitted effect of over 55% in size; for activity change, negative = cytotoxic: % is set by controls: 0 for no effect and ±100 for the full control effect
# In short: as §1
# [8] = qHTS of pediatric cancer cell lines to identify multiple opportunities for drug repurposing: Primary screen for MG 63 (6-TG R) cells (AID 1347105); conditions: MG 63 (6-TG R) viability, CellTiter-Glo, 48 h; activity change, negative = cytotoxic: at 46 µM (top of the series) unless noted; note: nearly all actives have a fitted effect of over 50% in size; for activity change, negative = cytotoxic: % is set by controls: 0 for no effect and ±100 for the full control effect
# In short: as §2
# [9] = qHTS of pediatric cancer cell lines to identify multiple opportunities for drug repurposing: Primary screen for control Hh wild type fibroblast cells (AID 1347106); conditions: Hh wild-type fibroblast viability, CellTiter-Glo luminescence, 48 h; series mostly up to 46 µM; note: nearly all actives have a fitted effect of over 55% in size;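 for activity change, negative = cytotoxic: % is set by controls: 0 for no effect and ±100 for the full control effect; a drop in luminescence marks cytotoxicity and a rise apparent proliferation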
# In short: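 Viability after 48 h compound treatment at 37C, 500-1,000 cells/well, read as ATP luminescence with CellTiter-Glo. Primary screens used 11-point (MIPE, 0.78 nM-46 µM) or 8-point (NPC, 0.59 nM-46 µM) final concentrations; follow-up screens used 11-point dilutions.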
# [10] = qHTS of pediatric cancer cell lines to identify multiple opportunities for drug repurposing: Confirmatory screen for A673 cells (AID 1347110); conditions: A673 Ewing sarcoma cell viability; series mostly up to 45.9 µM;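 note: cells exposed to compound for 48 h before the viability read; nearly all actives have a fitted effect of over 65% in size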
# In short: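 Viability was read as ATP luminescence (CellTiter-Glo) after 48 h of compound exposure at 37 C in A673 cells seeded at 500-1,000/well. Titrations reached 46 uM final, with 11 points in the confirmatory screen. Concentration-response curves were fitted directly.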
# Potency is the fitted concentration of half-maximal effect; tags give direction and shape of the fitted curve.
smiles,measurement,setting,value
Clc1ccc(CCC(Cn2ccnc2)Sc2c(Cl)cccc2Cl)cc1 (stereo not given),Potency,[1],"active: 27.6 µM and inconclusive: 15.3 µM [cytotoxic, partial curve, poor fit]"
same,Potency,[2],"inconclusive: 23.7 µM [cytotoxic, partial curve]"
same,Potency,[3],inactive
same,Potency,[4],"inconclusive: 16.6 µM [cytotoxic, partial curve]"
CCCN(CCC)CCc1c[nH]c2ccccc12,Potency,[1],"inconclusive: 25 µM [cytotoxic, partial curve, poor fit]"
same,Potency,[2],"inconclusive: 60.5 µM [cytotoxic, single point]"
same,Potency,[4],"inconclusive: 27 µM [cytotoxic, partial curve, poor fit]"
CC=C(C)C(=O)N[C@@H](c1ccccc1)[C@@H](O)C(=O)O[C@H]1C[C@@]2(O)[C@@H](OC(=O)c3ccccc3)[C@@H]3[C@]4(OC(C)=O)CO[C@@H]4C[C@H](O)[C@@]3(C)C(=O)[C@H](OC(C)=O)C(=C1C)C2(C)C,Potency,[1],active: 0.001 µM
same,Potency,[2],"inconclusive: 0.0015 µM [cytotoxic, full curve]"
same,Potency,[4],"inconclusive: 0.0037 µM [cytotoxic, full curve]"
same,Potency,[5],"inconclusive: 0.0261 µM [cytotoxic, full curve, poor fit]"
same,Potency,[6],active: 0.0369 µM
same,Potency,[7],"inconclusive: 0.131 µM [cytotoxic, full curve]"
CC(C)(C)NCC(O)c1cc(Cl)c(N)c(Cl)c1 (stereo not given),Potency,[1],inactive
same,Potency,[2],inactive
same,Potency,[3],inactive
N=c1c2c(-c3ccccc3)c(-c3ccccc3)n(Cc3ccccc3)c2ncn1C1CCC(O)CC1 (stereo not given),Potency,[1],"inconclusive: 43.2 µM [cytotoxic, single point]"
same,Potency,[2],"inconclusive: 16.6 µM [cytotoxic, partial curve]"
same,Potency,[8],"inconclusive: 37.2 µM [cytotoxic, single point]"
same,Potency,[3],"inconclusive: 20.9 µM [cytotoxic, partial curve]"
same,Potency,[4],"inconclusive: 18.7 µM [cytotoxic, partial curve]"
CC[C@H]1C[C@@H]2C[C@H]3c4[nH]c5ccc(OC)cc5c4CCN(C2)[C@@H]13,Potency,[1],"inconclusive: 27.8 µM [cytotoxic, partial curve]"
same,Potency,[2],"inconclusive: 53.4 µM [cytotoxic, single point]"
same,Potency,[8],"inconclusive: 4.76 µM [cytotoxic, partial curve, poor fit]"
same,Potency,[4],active: 30 µM
CC(C)N[C@@H]1CCn2c(=O)[nH]c3cccc(c32)[C@@H]1O,Potency,[1],active: 1.37 µM
same,Potency,[9],active: 11.8 µM
same,Potency,[3],active: 1.48 µM
same,Potency,[4],"inconclusive: 18.7 µM [cytotoxic, partial curve]"
same,Potency,[10],"inconclusive: 8.27 µM [cytotoxic, full curve]"
FC(F)(F)c1cccc(C2=CCN(CCc3ccc4ccccc4c3)CC2)c1,Potency,[1],"inconclusive: 38.9 µM [cytotoxic, partial curve, poor fit]"
same,Potency,[8],inactive
same,Potency,[9],inactive
CC(C)c1cccc(C(C)C)c1O,Potency,[1],"inconclusive: 17.2 µM [cytotoxic, partial curve]"
same,"activity change, negative = cytotoxic",[8],inconclusive: -32.9% [cytotoxic]
same,Potency,[9],inactive
same,Potency,[3],"inconclusive: 18.7 µM [cytotoxic, partial curve, poor fit]"
CC(C)[C@H]1C(=O)N[C@H](CO)Cc2c[nH]c3cccc(c23)N1C,Potency,[1],"inconclusive: 0.0306 µM [cytotoxic, full curve, poor fit]"
same,Potency,[8],"inconclusive: 0.235 µM [cytotoxic, full curve]"
same,Potency,[9],"inconclusive: 0.526 µM [cytotoxic, full curve]"
ClCCCN1CCN(c2cccc(Cl)c2)CC1,Potency,[1],"inconclusive: 43.7 µM [cytotoxic, partial curve, poor fit]"
same,Potency,[8],inactive
Clc1ccc(CSC(Cn2ccnc2)c2ccc(Cl)cc2Cl)cc1 (stereo not given),Potency,[1],active: 27.6 µM
same,Potency,[8],"inconclusive: 33.5 µM [cytotoxic, single point]"
same,Potency,[3],"inconclusive: 18.8 µM [cytotoxic, single point]"
same,Potency,[4],"inconclusive: 23.7 µM [cytotoxic, single point]"
COP(=S)(OC)Oc1ccc(SC)c(C)c1,Potency,[1],inactive
same,Potency,[8],inactive
same,Potency,[4],inactive
COCC1(CO)C(=O)C2CCN1CC2 (stereo not given),Potency,[1],active: 3.85 µM
same,Potency,[8],active: 18.7 µM
same,Potency,[3],"inconclusive: 18.7 µM [cytotoxic, partial curve]"
same,Potency,[4],active: 20.9 µM
COC1=CC(C)=C[C@@H](C)[C@@H](O)[C@@H](C)CC(C)=CC=C[C@H](OC)[C@H]([C@@H](C)[C@@H](O)[C@H](C)[C@@]2(O)C[C@@H](O)[C@H](C)[C@@H](C(C)C)O2)OC1=O,Potency,[1],active: 0.0014 µM
same,Potency,[9],active: 0.0418 µM
same,Potency,[3],"inconclusive: 16.6 µM [cytotoxic, partial curve, poor fit]"
same,Potency,[4],active: 16.6 µM
same,Potency,[5],"inconclusive: 9.27 µM [cytotoxic, single point]"
same,Potency,[10],inactive
same,Potency,[6],"inconclusive: 9.27 µM [cytotoxic, single point]"
same,Potency,[7],"inconclusive: 11.7 µM [cytotoxic, partial curve, poor fit]"
Cc1nc2ccccc2c(=O)n1-c1ccccc1Cl,Potency,[1],"inconclusive: 31.2 µM [cytotoxic, partial curve]"
same,"activity change, negative = cytotoxic",[8],inconclusive: -43.5% [cytotoxic] [at 92.7 µM]
CC(O)(CS(=O)(=O)c1ccc(F)cc1)C(=O)Nc1ccc(C#N)c(C(F)(F)F)c1 (stereo not given),Potency,[1],"inconclusive: 43.2 µM [cytotoxic, single point]"
same,Potency,[8],active: 3.72 µM
same,Potency,[9],"inconclusive: 20.9 µM [cytotoxic, single point]"
same,Potency,[3],active: 3.72 µM
CC(=O)[C@H]1CC[C@H]2[C@@H]3CC[C@H]4C[C@H](O)CC[C@]4(C)[C@H]3C(=O)C[C@]12C,Potency,[1],"inconclusive: 17.4 µM [cytotoxic, single point]"
same,Potency,[3],inactive
CN[C@@H]1Cc2cccc3[nH]c(=O)n(c23)C1,Potency,[1],"inconclusive: 24.3 µM [cytotoxic, partial curve, poor fit]"
same,Potency,[8],inactive
same,Potency,[3],inactive
same,Potency,[4],"inconclusive: 5.9 µM [cytotoxic, partial curve, poor fit]"
C[C@H]1O[C@@H](O[C@H]2[C@@H](O)C[C@H](O[C@H]3[C@@H](O)C[C@H](O[C@H]4CC[C@@]5(C)[C@H](CC[C@@H]6[C@@H]5CC[C@]5(C)[C@@H](C7=CC(=O)OC7)CC[C@]65O)C4)O[C@@H]3C)O[C@@H]2C)C[C@H](O)[C@@H]1O,Potency,[1],active: 0.011 µM
same,Potency,[9],active: 0.841 µM
same,Potency,[4],"inconclusive: 0.0133 µM [cytotoxic, full curve]"
same,Potency,[10],active: 0.465 µM
CCC(COC(=O)c1cc(OC)c(OC)c(OC)c1)(c1ccccc1)N(C)C (stereo not given),Potency,[1],"inconclusive: 15.5 µM [cytotoxic, partial curve]"
same,Potency,[3],inactive
C[C@H]1CCCC=CC2C[C@H](O)C[C@@H]2[C@H](O)C=CC(=O)O1 (stereo not given in full),Potency,[1],active: 0.001 µM
same,Potency,[9],"inconclusive: 0.59 µM [cytotoxic, full curve]"
same,Potency,[4],"inconclusive: 0.0047 µM [cytotoxic, full curve, poor fit]"
S=C(SSC(=S)N1CCCCC1)N1CCCCC1,Potency,[1],"inconclusive: 0.0246 µM [cytotoxic, full curve, poor fit]"
same,Potency,[8],"inconclusive: 26.6 µM [cytotoxic, partial curve, poor fit]"
same,Potency,[9],active: 1.06 µM
same,Potency,[4],"inconclusive: 0.0266 µM [cytotoxic, full curve]"
same,Potency,[5],"inconclusive: 4.65 µM [cytotoxic, partial curve, poor fit]"
same,Potency,[6],"inconclusive: 0.928 µM [cytotoxic, full curve, poor fit]"
same,Potency,[7],"inconclusive: 26.1 µM [cytotoxic, partial curve, poor fit]"
CCNC(=O)C[C@@H]1N=C(c2ccc(Cl)cc2)c2cc(OC)ccc2-n2c(C)nnc21,Potency,[1],active: 1.53 µM
same,Potency,[8],active: 0.469 µM
same,Potency,[3],"inconclusive: 11.8 µM [cytotoxic, partial curve]"
O=C(N[C@H]1CN2CCC1CC2)c1ccc(Cl)cc1,Potency,[1],"inconclusive: 27.3 µM [cytotoxic, partial curve, poor fit]"
same,Potency,[9],"inconclusive: 2.35 µM [cytotoxic, full curve]"
same,Potency,[3],"inconclusive: 11.8 µM [cytotoxic, partial curve]"
same,Potency,[4],"inconclusive: 18.7 µM [cytotoxic, partial curve]"
CCC1(CCC(C)C)C(=O)NC(=O)NC1=O,Potency,[1],inactive
same,Potency,[8],inactive
same,Potency,[4],inactive
C[C@]12C/C(=C/O)C(=O)C[C@@H]1CC[C@@H]1[C@@H]2CC[C@@]2(C)[C@H]1CC[C@]2(C)O,Potency,[1],"inconclusive: 38.9 µM [cytotoxic, single point]"
same,Potency,[8],inactive
CC[C@@H]1[C@@H](C)O[C@@](O)([C@@H](C)[C@H](O)[C@H](C)[C@H]2OC(=O)C=CC=C[C@@H](C)[C@@H]([C@@H](C)[C@@H](O)[C@H](C)[C@@]3(O)C[C@H](O[C@H]4C[C@H](O)[C@H](O)[C@H](C)O4)[C@H](CC)[C@@H](C)O3)OC(=O)C=CC=C[C@@H]2C)C[C@H]1O[C@H]1C[C@H](O)[C@H](O)[C@H](C)O1,Potency,[1],active: 0.306 µM
same,Potency,[8],active: 0.59 µM
same,Potency,[9],active: 9.35 µM
same,Potency,[3],active: 0.935 µM
same,Potency,[4],active: 0.743 µM
same,Potency,[5],inactive
same,Potency,[10],"inconclusive: 36.9 µM [cytotoxic, single point]"
same,Potency,[6],inactive
same,Potency,[7],inactive
CC(C)(C)C(O)C(Oc1ccc(Cl)cc1)n1cncn1 (stereo not given),Potency,[1],"inconclusive: 28.2 µM [cytotoxic, partial curve, poor fit]"
same,"activity change, negative = cytotoxic",[8],inconclusive: -37.3% [cytotoxic] [at 92.7 µM]
same,Potency,[3],inactive
same,Potency,[5],inactive
same,Potency,[6],inactive
